Measured values reported in the supplement of paper PMC8728848.
Some of the results follow.

How the values were obtained:
Assay in all cases: glycan array binding signal (z-score within array); higher = stronger binding
Details in all cases: glycan notation: IUPAC condensed, linker removed
Neu5Ac(a2-8)Neu5Ac = target: Neu5Ac(a2-8)Neu5Ac
How it was run: (§1)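 The binding signal is a Z-score computed within each array and averaged over linkers. Arrays of the same protein sequence at different concentrations or buffers were also averaged together. Data originate from 3228 arrays in the Consortium for Functional Glycomics database, kept only where the protein sequence was available.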

[1] = target: Neu5Ac(a2-8)Neu5Ac(a2-3)Gal(b1-3)GalNAc(b1-4)[Neu5Ac(a2-3)]Gal(b1-4)Glc
How it was run: as §1

[2] = target: Neu5Ac(a2-8)Neu5Ac(a2-3)Gal(b1-3)GalNAc(b1-4)[Neu5Ac(a2-8)Neu5Ac(a2-3)]Gal(b1-4)Glc
How it was run: as §1

[3] = target: Neu5Ac(a2-8)Neu5Ac(a2-3)Gal(b1-4)Glc
How it was run: as §1

[4] = target: Neu5Ac(a2-8)Neu5Ac(a2-3)Gal(b1-4)GlcNAc
How it was run: as §1

[5] = target: Neu5Ac(a2-8)Neu5Ac(a2-3)[Gal(b1-3)GalNAc(b1-4)]Gal(b1-4)Glc
How it was run: as §1

[6] = target: Neu5Ac(a2-8)Neu5Ac(a2-3)[GalNAc(b1-4)]Gal(b1-4)Glc
How it was run: as §1

[7] = target: Neu5Ac(a2-8)Neu5Ac(a2-8)Neu5Ac
How it was run: as §1

[8] = target: Neu5Ac(a2-8)Neu5Ac(a2-8)Neu5Ac(a2-3)Gal(b1-4)Glc
How it was run: as §1

[9] = target: Neu5Ac(a2-8)Neu5Ac(a2-8)Neu5Ac(a2-3)[Gal(b1-3)GalNAc(b1-4)]Gal(b1-4)Glc
How it was run: as §1

[10] = target: Neu5Ac(a2-8)Neu5Ac(a2-8)Neu5Ac(a2-3)[GalNAc(b1-4)]Gal(b1-4)Glc
How it was run: as §1

[11] = target: Neu5Ac(a2-8)Neu5Ac(a2-8)Neu5Ac(a2-8)Neu5Ac(a2-3)[GalNAc(b1-4)]Gal(b1-4)Glc
How it was run: as §1

[12] = target: Neu5Ac(a2-8)Neu5Gc(a2-3)Gal(b1-4)GlcNAc
How it was run: as §1

[13] = target: Neu5Ac(b2-6)Gal(b1-4)GlcNAc
How it was run: as §1

Neu5Ac(b2-6)GalNAc = target: Neu5Ac(b2-6)GalNAc
How it was run: as §1

[14] = target: Neu5Ac9Ac(a2-3)Gal(b1-3)GlcNAc
How it was run: as §1

[15] = target: Neu5Ac9Ac(a2-3)Gal(b1-4)GlcNAc
How it was run: as §1

[16] = target: Neu5Ac9Ac(a2-6)Gal(b1-4)GlcNAc
How it was run: as §1

[17] = target: Neu5Gc(a2-3)Gal(b1-3)GlcNAc
How it was run: as §1

[18] = target: Neu5Gc(a2-3)Gal(b1-3)[Fuc(a1-4)]GlcNAc
How it was run: as §1

Neu5Gc(a2-3)Gal(b1-4)Glc = target: Neu5Gc(a2-3)Gal(b1-4)Glc
How it was run: as §1

[19] = target: Neu5Gc(a2-3)Gal(b1-4)GlcNAc
How it was run: as §1

[20] = target: Neu5Gc(a2-3)Gal(b1-4)GlcNAc(b1-3)Gal(b1-4)GlcNAc(b1-2)Man(a1-3)[Neu5Gc(a2-3)Gal(b1-4)GlcNAc(b1-3)Gal(b1-4)GlcNAc(b1-2)Man(a1-6)]Man(b1-4)GlcNAc(b1-4)GlcNAc
How it was run: as §1

[21] = target: Neu5Gc(a2-3)Gal(b1-4)[Fuc(a1-3)]GlcNAc
How it was run: as §1

[22] = target: Neu5Gc(a2-6)Gal(b1-4)GlcNAc
How it was run: as §1

Neu5Gc(a2-6)GalNAc = target: Neu5Gc(a2-6)GalNAc
How it was run: as §1

[23] = target: Neu5Gc(a2-8)Neu5Ac(a2-3)Gal(b1-4)GlcNAc
How it was run: as §1

[24] = target: Neu5Gc(a2-8)Neu5Gc(a2-3)Gal(b1-4)GlcNAc
How it was run: as §1

[25] = target: Neu5Gc(a2-8)Neu5Gc(a2-3)Gal(b1-4)GlcNAc(b1-3)Gal(b1-4)GlcNAc
How it was run: as §1

[26] = target: Neu5Gc(a2-8)Neu5Gc(a2-6)Gal(b1-4)GlcNAc
How it was run: as §1

[27] = target: Neu5Gc(b2-6)Gal(b1-4)GlcNAc
How it was run: as §1

B1: FGFR2-Fc (protein)
chain: MVNVTDAISSGDDEDDTDGAEDFVSENSNNKRAPYWTNTEKMEKRLHAVPAANTVKFRCPAGGNPMPTMRWLKNGKEFKQEHRIGGYKVRNQHWSLIMESVVPSDKGNYTCVVENEYGSINHTYHLDVVERSPHRPILQAGLPANASTVVGGDVEFVCKVYSDAQPHIQWIKHVEKNGSKYGPDGLPYLKVLKHSGINSSNAEVLALFNVTEADAGEYICKVSNYIGQANQSAWLTVLPKQQAPGREKEITASPDYLETRPLEQKLISEEDLAANDILDYKDDDDKV
B1 was tested, and the “glycan array binding signal (z-score)” value (Neu5Ac(a2-8)Neu5Ac) was -0.318, the “glycan array binding signal (z-score)” value [1] was -0.105 and the “glycan array binding signal (z-score)” value [2] was 0.38. For the same binder, the “glycan array binding signal (z-score)” value [3] was -0.492, the “glycan array binding signal (z-score)” value [4] was -0.139 and the “glycan array binding signal (z-score)” value [5] was 0.18. The “glycan array binding signal (z-score)” value [6] was 0.472, the “glycan array binding signal (z-score)” value [7] was -0.076 and the “glycan array binding signal (z-score)” value [8] was -0.306. The “glycan array binding signal (z-score)” value [9] was 0.572, the “glycan array binding signal (z-score)” value [10] was 0.201 and the “glycan array binding signal (z-score)” value [11] was 0.963. The “glycan array binding signal (z-score)” value [12] was -0.614, the “glycan array binding signal (z-score)” value [13] was 0.098 and the “glycan array binding signal (z-score)” value (Neu5Ac(b2-6)GalNAc) was -0.477. For the same binder, the “glycan array binding signal (z-score)” value [14] was 0.103, the “glycan array binding signal (z-score)” value [15] was -0.358 and the “glycan array binding signal (z-score)” value [16] was -0.013. For the same binder, the “glycan array binding signal (z-score)” value [17] was -0.068, the “glycan array binding signal (z-score)” value [18] was 0.172 and the “glycan array binding signal (z-score)” value (Neu5Gc(a2-3)Gal(b1-4)Glc) was -0.06. The “glycan array binding signal (z-score)” value [19] was 0.455, the “glycan array binding signal (z-score)” value [20] was -0.057 and the “glycan array binding signal (z-score)” value [21] was 0.278. For the same binder, the “glycan array binding signal (z-score)” value [22] was 0.416, the “glycan array binding signal (z-score)” value (Neu5Gc(a2-6)GalNAc) was -0.597 and the “glycan array binding signal (z-score)” value [23] was 0.007. For the same binder, the “glycan array binding signal (z-score)” value [24] was -0.298, the “glycan array binding signal (z-score)” value [25] was -0.223 and the “glycan array binding signal (z-score)” value [26] was -0.4. The “glycan array binding signal (z-score)” value [27] was 0.378.
